Assay results from PMC4336329 (PLoS ONE, 2015).
About 14,000 (4.5%) of roughly 310,000 compounds showed an effect of 50% or more. Effects have a minus sign here. This is one part of the list.

Molecular target: human ether-à-go-go-related gene (hERG) potassium channel (human, UniProt Q12809)
Experiment: primary screen, population patch clamp on CHO cells stably expressing hERG
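Also: peak tail current of the secondary pulse compared with the same well before compound.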

human ether-à-go-go-related gene (hERG) potassium channel, sequence (Q12809 whole entry, looked up): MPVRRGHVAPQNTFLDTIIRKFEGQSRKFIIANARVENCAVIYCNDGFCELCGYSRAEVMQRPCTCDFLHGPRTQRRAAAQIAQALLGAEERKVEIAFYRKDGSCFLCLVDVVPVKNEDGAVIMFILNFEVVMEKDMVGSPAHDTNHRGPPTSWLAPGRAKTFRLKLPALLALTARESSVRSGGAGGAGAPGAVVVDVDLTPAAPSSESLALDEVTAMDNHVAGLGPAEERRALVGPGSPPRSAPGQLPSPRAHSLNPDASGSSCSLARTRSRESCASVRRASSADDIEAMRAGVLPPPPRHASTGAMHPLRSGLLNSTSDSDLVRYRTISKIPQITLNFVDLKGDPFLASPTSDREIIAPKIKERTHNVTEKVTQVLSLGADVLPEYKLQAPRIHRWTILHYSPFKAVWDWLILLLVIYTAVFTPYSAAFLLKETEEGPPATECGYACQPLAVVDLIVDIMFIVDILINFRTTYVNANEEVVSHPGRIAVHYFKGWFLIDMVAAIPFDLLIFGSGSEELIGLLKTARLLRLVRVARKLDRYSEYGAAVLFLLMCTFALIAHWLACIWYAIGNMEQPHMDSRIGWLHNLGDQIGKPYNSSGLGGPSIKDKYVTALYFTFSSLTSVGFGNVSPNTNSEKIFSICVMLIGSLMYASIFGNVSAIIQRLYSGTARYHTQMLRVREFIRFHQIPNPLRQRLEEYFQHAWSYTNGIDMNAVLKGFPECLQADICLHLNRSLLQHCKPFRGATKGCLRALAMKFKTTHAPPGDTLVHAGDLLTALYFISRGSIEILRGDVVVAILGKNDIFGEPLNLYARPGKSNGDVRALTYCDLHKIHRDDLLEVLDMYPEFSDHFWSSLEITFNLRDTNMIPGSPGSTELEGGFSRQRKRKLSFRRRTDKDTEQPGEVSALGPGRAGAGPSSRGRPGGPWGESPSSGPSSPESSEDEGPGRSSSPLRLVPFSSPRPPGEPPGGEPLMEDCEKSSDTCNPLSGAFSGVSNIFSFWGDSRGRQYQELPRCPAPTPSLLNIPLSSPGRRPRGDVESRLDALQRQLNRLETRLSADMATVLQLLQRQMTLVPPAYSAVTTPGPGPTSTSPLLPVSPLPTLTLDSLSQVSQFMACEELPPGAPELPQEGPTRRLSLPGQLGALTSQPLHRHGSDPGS

SMILES	hERG current change (%, negative = inhibition) at 10uM [%]
COc1ccc(OC)c(C2=CC(=O)C[C@H](c3ccc4c(c3)OCO4)C2)c1	-10.6
Cc1ccc(NC(=O)CN2CCCCCC2)cc1[N+](=O)[O-]	23.1
Cc1ccc(CONC(=O)c2ccc(OC(F)F)cc2)cc1	-30.9
O=C(Nc1ccc(F)cc1)C1CCCN(S(=O)(=O)c2cccc3cccnc23)C1 (centres unmarked)	-49.3
O=C(NCc1ccco1)/C(=C/c1ccc(Cl)cc1)NC(=O)c1ccco1	-14
OC(Cn1nnc2ccccc21)Cn1c(C(F)(F)F)nc2ccccc21 (centres unmarked)	-2.39
Cc1ccc(S(=O)(=O)Nc2cc(C)cn(Cc3ccc(F)cc3)c2=O)cc1	-13.3
COc1ccc2[nH]c3c(c2c1)CCNC3(C)CCc1ccc(Cl)nc1 (centres unmarked)	-51.6
CCc1ccccc1NNC(=O)c1snnc1C	7.88
COc1cc(C=O)ccc1OC(=O)N1CCOCC1	14.7
O=C(NCCc1ccccc1)c1ccc(CS(=O)(=O)c2ccc(Cl)cc2)o1	-2.15
O=C(CCC1COc2ccccc2O1)NCc1ccccc1 (centres unmarked)	-13.9
CC(C)(C)C(=O)N1CCN(c2ccc([N+](=O)[O-])c(NCc3cccnc3)c2)CC1	-29.3
O=C(NNc1ccccc1[N+](=O)[O-])Nc1ccc(Cl)c(Cl)c1	8.2
Nn1c(SCc2cccc(Br)c2)nnc1-c1ccncc1	-16.5
O=C(NCc1ccccc1)/C(=C/c1ccc(OC(F)F)cc1)c1ccccc1	4.19
O=C1CC(c2ccccc2)C(C(=O)O)N1 (centres unmarked)	16
Cc1cc(C(=O)N2CCc3c([nH]c4ccccc34)C2c2c(F)cccc2Cl)no1 (centres unmarked)	5.46
C#CCOCOCC#CCN(CC)CC	3.26
COc1cc2c(C(=O)N(C)c3cc(Cl)ccc3OC)cn(C)c(=O)c2cc1OC	9.6
COc1cccc(CCc2nnc(CCC(=O)N3CCN(Cc4ccccn4)CC3)o2)c1	17
CCSc1nnc(NC(=O)c2csc(C)c2)s1	-0.0426

SMILES	hERG current change (%, negative = inhibition) at 10uM [%]
Cc1ccc(S(=O)(=O)N2CCOCC2)cc1C(=O)N1C(=O)c2cccc(N)c2C1=O	-17.1
CCN(CC)C(=O)Oc1ccc(Br)cc1C(=O)Nc1ccc(F)cc1F	-2.5
O=C1CCc2cc(S(=O)(=O)Nc3ccccc3Cl)ccc2N1	-5.94
Cc1c(O)ccc2c(CN(C)Cc3ccccc3)cc(=O)oc12	10.2
CN1CCOC(c2ccccc2)c2ccccc2C1.Cl (centres unmarked)	3.33
Cc1oc(C(=O)Nc2ccc(C(=O)O)cc2)cc1COc1ccccc1	-2.55
COC(=O)Nc1nn(-c2ccc(OC)cc2)c(=O)c(C#N)c1C	4.53
CC(=O)c1cnc2cc(-c3ccccc3)nn2c1C	-5.79
O=[N+]([O-])c1ccc(-c2nc(=S)c3c(o2)CCCC3)cc1	-6.53
N#Cc1nc(-c2ccc(Cl)cc2)oc1NCc1ccco1	16.7
O=C1NC(=O)N(c2ccccc2F)C(=O)/C1=C/c1ccc(Sc2nc3ccccc3[nH]2)o1	-4.03
C#CCOCCOCCOCCNc1nc(N2CCN(C(=O)Cn3cc(CC(C)O)nn3)CC2)nc(N2CCN(C(=O)[C@H]([C@@H](C)CC)n3cc(CCC[NH+]=C(N)N)nn3)CC2)n1.[Cl-] (some centres unmarked)	-0.406
CC(C)(C)c1ccc(-c2noc(CCC(=O)NCc3ccco3)n2)cc1	-0.0396
CN(CC1CCCO1)S(=O)(=O)c1ccc(C(=O)Nc2nccs2)cc1 (centres unmarked)	-0.406
CC(NC(=O)C1CC1)C(c1cccs1)N1CCN(c2ccccc2)CC1 (centres unmarked)	-0.284
C=CCN(CC=C)C(=S)NC(=O)Cc1cccc2ccccc12	-9.26
COC(=O)COc1ccc2c(=O)c(Oc3ccccc3Br)coc2c1	14
Cc1c(NS(=O)(=O)c2cccc(C(=O)OCC(=O)N(C)C3CCCCC3)c2)c(=O)n(-c2ccccc2)n1C	4
Cl.O=C(NCCN1CCOCC1)c1ccc(Cl)c(S(=O)(=O)N2CCCCCC2)c1	-40.1
O=C(CSc1ccc2c(c1)OCCO2)Nc1ccc(N2CCOCC2)cc1	15.1
CC(=O)NCCc1nc2cc(NC(=O)c3cccs3)ccc2n1C	12
CC(C)=C1C2CCC1C1C(=O)N(c3nc(-c4ccc(C(C)C)cc4)c(C)s3)C(=O)C21 (centres unmarked)	-0.211

SMILES	hERG current change (%, negative = inhibition) at 10uM [%]
COC(=O)[C@H](Cc1c[nH]c2ccccc12)NC(=O)NCc1ccccc1	11.1
CCOc1ccc(N(CC(=O)Nc2ccc3c(c2)OCCO3)S(=O)(=O)c2c(C)noc2C)cc1	17.6
CCC1=C(C)C(N2CCOCC2)=NP(N2CCOCC2)(N2CCOCC2)=N1	8.02
CCn1nc(C(=O)Nc2nc3ccc(C)cc3s2)c2ccccc2c1=O	8.07
COc1ccc(-c2noc(N3CCC(C(=O)Nc4ccc(OC)cc4OC)CC3)n2)cc1	-9.62
Cc1ccccc1NC(=O)Cc1nc(COC(=O)c2ccc(S(C)(=O)=O)c([N+](=O)[O-])c2)cs1	-1.06
Nc1nccnc1C(=O)OCC(=O)C12CC3CC(CC(C3)C1)C2	-5.19
Cc1cc(C)c(S(=O)(=O)NCc2ccncc2)c(C)c1	5.13
N#Cc1ccc(S(=O)(=O)NC2CCN(Cc3ccccc3)CC2)cc1	-31.8
COc1ccccc1Oc1coc2c(CN3CCOCC3)c(O)ccc2c1=O	-1.63
O=C(c1ccc2c(=O)n(CC3CCCO3)c(=S)[nH]c2c1)N1CCN(c2ccccc2)CC1 (centres unmarked)	-1.95
O=C(Nc1ccc(N2CCOCC2)cc1)C1CCCCC1	4.44
CCN1CCN(C(=O)C2CCCN(S(=O)(=O)c3cc(Cl)ccc3Cl)C2)CC1 (centres unmarked)	-41
CC1(C(=O)O)CCC(C(=O)Nc2cccc(F)c2)C1(C)C (centres unmarked)	4.5
O=C(O)c1ccc(Cl)cc1Nc1nc2cc(Cl)ccc2o1	22.5
Cc1ncc([N+](=O)[O-])n1CCOC(=O)c1ccc(Cl)cc1Cl	-20.2
CC1(C)Cc2c(c(N3CCCC3)nc3sc4c(N5CCNCC5)ncnc4c23)CO1	-35.2
NC(=O)C1CCCN(Cc2ccc(Cl)cc2)C1 (centres unmarked)	0.421
COc1ccc(NC(=O)c2noc(C(C)C)c2[N+](=O)[O-])cc1	6.44
COc1ccc(Cn2c(N)c(C(=O)NCc3ccco3)c3nc4ccccc4nc32)cc1OC	7.14
COc1ccc(OC)c(CN2CCN(S(=O)(=O)c3ccccc3)CC2)c1	-79.2
O=C(COC(=O)CCC(=O)c1cccs1)NCc1ccc(Cl)cc1	0.0834

SMILES	hERG current change (%, negative = inhibition) at 10uM [%]
O=C(CSc1nccn1Cc1ccc(F)cc1)NC1CCCC1	-0.2
COCCNC(=O)C(c1ccc(O)cc1)N(Cc1ccco1)C(=O)CCC(=O)Nc1ccccn1 (centres unmarked)	23.8
COc1ccc(-n2nc(C(=O)N3CCC(N4CCCCC4)CC3)c3c4ccccc4n(C)c3c2=O)cc1	7.1
Cc1ccc(NC(=O)CSc2nnnn2C)cc1S(=O)(=O)N(C)C	5.34
CC(C)(C)CC(=O)Nc1nnc(SCC(=O)N2CCCCC2)s1	1.31
CCC(C)(C)C1CCC(NC(=O)c2ccc(S(=O)(=O)N3CCOCC3)cc2)CC1 (centres unmarked)	-12.1
Cc1ccc(C2=NS(=O)(=O)N(C)C(C(=O)NC3CCCC3)=C2)cc1	-3.36
COc1cc(/C=N/NC(=O)CC(=O)NC2CCCCC2)ccc1O	17.2
CC(C)n1nnnc1SCC(=O)N1CCN(C(=O)c2ccco2)CC1	4.86
Cc1ccc(-c2[nH]c3cc(C(=O)NCCCn4ccnc4)ccc3c(=O)c2O)cc1	4.14
O=C(NC(=S)N1CCN(CCO)CC1)C12CC3CC(CC(C3)C1)C2	1.36
CCOC(=O)C(NCc1ccc2c(c1)OCO2)(NC(=O)CC)C(F)(F)F (centres unmarked)	14.3
CCCCc1nc2cc(C(=O)N3CCC(OCCOC)CC3)ccc2o1	8.07
CN1CCN(C(=O)/C=C\C(=O)O)CC1	0.151
C=CCSc1nc(Cc2ccc(Cl)cc2)nc2ccccc12	2.63
COc1ccc(OC)c(NC(=O)CSc2nccn2Cc2ccco2)c1	7.18
Cc1ccc([N+](=O)[O-])cc1NC(=O)CSc1nncc2ccccc12	-9.86
N/C(=N\OC(=O)Nc1ccccc1)c1cccc(C(F)(F)F)c1	-25.6
COc1ccc(C(=O)Nc2ccc(S(=O)(=O)N3CCCCC3)cc2)cc1OC	-9.83
Cc1cc(C)n(-c2ccc(C(=O)Nc3ccc4c(c3)OCCO4)cc2)n1	-9.55
